The other results are listed elsewhere or left out.
Assays:
Assay in all cases: glycan array binding signal (z-score within array); higher = stronger binding
Conditions in all cases: glycan notation: IUPAC condensed, linker removed
[1] = target: Gal(a1-3)Gal(b1-4)[Fuc(a1-3)]GlcNAc
In short: (§1)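 The binding signal is a Z-score computed within each array and averaged over linkers. Arrays of the same protein sequence at different concentrations or buffers were also averaged together. Data originate from 3228 arrays in the Consortium for Functional Glycomics database, kept only where the protein sequence was available.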

Gal(a1-3)GalNAc = target: Gal(a1-3)GalNAc
In short: as §1

[2] = target: Gal(a1-3)[Gal(a1-4)]Gal(b1-4)GlcNAc
In short: as §1

Gal(a1-4)Gal(b1-4)Glc = target: Gal(a1-4)Gal(b1-4)Glc
In short: as §1

Gal(a1-4)Gal(b1-4)GlcNAc = target: Gal(a1-4)Gal(b1-4)GlcNAc
In short: as §1

Gal(a1-4)GlcNAc = target: Gal(a1-4)GlcNAc
In short: as §1

Gal(a1-6)Glc = target: Gal(a1-6)Glc
In short: as §1

Gal(b1-2)Gal = target: Gal(b1-2)Gal
In short: as §1

Gal(b1-3)Gal = target: Gal(b1-3)Gal
In short: as §1

Gal(b1-3)GalNAc = target: Gal(b1-3)GalNAc
In short: as §1

[3] = target: Gal(b1-3)GalNAc(b1-4)Gal(b1-4)Glc
In short: as §1

[4] = target: Gal(b1-3)GalNAc(b1-4)[Neu5Ac(a2-3)]Gal(b1-4)Glc
In short: as §1

Gal(b1-3)GlcNAc = target: Gal(b1-3)GlcNAc
In short: as §1

[5] = target: Gal(b1-3)GlcNAc(b1-3)Gal(b1-4)Glc
In short: as §1

[6] = target: Gal(b1-3)[Fuc(a1-4)]GlcNAc
In short: as §1

[7] = target: Gal(b1-3)[GlcNAc(b1-6)]GalNAc
In short: as §1

[8] = target: Gal(b1-3)[Neu5Ac(a2-6)]GalNAc
In short: as §1

[9] = target: Gal(b1-3)[Neu5Ac(a2-6)]GlcNAc(b1-4)Gal(b1-4)Glc
In short: as §1

[10] = target: Gal(b1-3)[Neu5Ac(b2-6)]GalNAc
In short: as §1

[11] = target: Gal(b1-4)GalNAc(a1-3)[Fuc(a1-2)]Gal(b1-4)GlcNAc
In short: as §1

Gal(b1-4)Glc = target: Gal(b1-4)Glc
In short: as §1

Gal(b1-4)Glc6S = target: Gal(b1-4)Glc6S
In short: as §1

Gal(b1-4)GlcNAc = target: Gal(b1-4)GlcNAc
In short: as §1

[12] = target: Gal(b1-4)GlcNAc(b1-3)Gal(b1-4)Glc
In short: as §1

[13] = target: Gal(b1-4)GlcNAc(b1-3)Gal(b1-4)GlcNAc
In short: as §1

[14] = target: Gal(b1-4)GlcNAc(b1-3)Gal(b1-4)GlcNAc(b1-3)Gal(b1-4)GlcNAc
In short: as §1

[15] = target: Gal(b1-4)GlcNAc(b1-3)Gal(b1-4)[Fuc(a1-3)]GlcNAc(b1-3)Gal(b1-4)[Fuc(a1-3)]GlcNAc
In short: as §1

[16] = target: Gal(b1-4)GlcNAc(b1-3)GalNAc
In short: as §1

[17] = target: Gal(b1-4)GlcNAc(b1-3)[Gal(b1-4)GlcNAc(b1-6)]GalNAc
In short: as §1

[18] = target: Gal(b1-4)GlcNAc(b1-6)GalNAc
In short: as §1

B1: TES70 (Toxocara canis), Q9XYV5 (protein)
chain: MISVVLVAIALQISGSYAGACNSINDCGLFETCVNNMCVPDNMGCPMPCQAGQVCVPPNCVAAPAPQPVTTTTAAATTTTSARGRCNANAQCGAFEVCVNGMCQPNNAGCNPPCAANQVCVAPNCVPAPIPPPAQSTTTAPATTRAPPSCPPSWSPFSGHCYYVAVGSFLFNQASDWCTQTNSRPVWFDQSNVGTFGAELYFINVLAASRGVQTYWLGLNRQFGQWVWTNGSPLIFSNWRGSEPDGCCGGNVTCALVNYANPFGQWDDAGCGNIWRNPQGFICKKPLA
[1]
  glycan array binding signal (z-score): 0.163
Gal(a1-3)GalNAc
  glycan array binding signal (z-score): -0.119
[2]
  glycan array binding signal (z-score): -0.153
Gal(a1-4)Gal(b1-4)Glc
  glycan array binding signal (z-score): 0.055
Gal(a1-4)Gal(b1-4)GlcNAc
  glycan array binding signal (z-score): -0.104
Gal(a1-4)GlcNAc
  glycan array binding signal (z-score): -0.043
Gal(a1-6)Glc
  glycan array binding signal (z-score): -0.167
Gal(b1-2)Gal
  glycan array binding signal (z-score): -0.118
Gal(b1-3)Gal
  glycan array binding signal (z-score): -0.141
Gal(b1-3)GalNAc
  glycan array binding signal (z-score): -0.108
[3]
  glycan array binding signal (z-score): -0.09
[4]
  glycan array binding signal (z-score): -0.126
Gal(b1-3)GlcNAc
  glycan array binding signal (z-score): -0.115
[5]
  glycan array binding signal (z-score): -0.155
[6]
  glycan array binding signal (z-score): -0.111
[7]
  glycan array binding signal (z-score): -0.137
[8]
  glycan array binding signal (z-score): 0.002
[9]
  glycan array binding signal (z-score): -0.193
[10]
  glycan array binding signal (z-score): -0.145
[11]
  glycan array binding signal (z-score): -0.161
Gal(b1-4)Glc
  glycan array binding signal (z-score): -0.064
Gal(b1-4)Glc6S
  glycan array binding signal (z-score): -0.122
Gal(b1-4)GlcNAc
  glycan array binding signal (z-score): -0.107
[12]
  glycan array binding signal (z-score): -0.131
[13]
  glycan array binding signal (z-score): -0.133
[14]
  glycan array binding signal (z-score): -0.116
[15]
  glycan array binding signal (z-score): -0.168
[16]
  glycan array binding signal (z-score): -0.136
[17]
  glycan array binding signal (z-score): -0.115
[18]
  glycan array binding signal (z-score): 0.229

— the supplement of paper PMC8728848
